# ± gives the standard deviation of the averaged measurements. The list shows a part of the results.
# Test system: PfAP2-EXP AP2 domain (GST-tagged)
# Experiment: gcPBM binding intensity (ln(normalized median fluorescence intensity)); higher = stronger DNA binding
# Method in brief: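 The highest Masliner-normalised natural-log median intensity across replicate spots of either probe orientation is reported as binding intensity. GST-tagged P. falciparum DNA-binding domains expressed in E. coli were applied for 1 h to an Agilent 4 × 180k array of primer-extended double-stranded 36-bp intergenic genomic probes plus negative controls, and bound protein was detected with Alexa488 anti-GST antibody and scanned at 488 nm.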
row,Sequence,gcPBM binding intensity (ln)
1,TAAATAAATACATACACACACATACAGATATATATA [CACACA_site5690],8.72 ± 0.47
2,AAACATTTACTATATTGTACTTAAGATCTTATCGTA [XGTACX_site3919],8.44 ± 0.31
3,TAATATGACATAAGGGGTACTATATATATATATATT [XGTACX_site386],8.7 ± 0.45
4,TATTTTAACATGTTTTCAAAAATAAAACATATAAAT [CACACA_negctrl_site1598],8.11 ± 0.4
5,GAACTTTACAACCCAACACACAAAAAAGAAAAGAAA [CACACA_site1717],8.7 ± 0.56
6,AATAGGAAAAGAAAAGCACACACATAAATAAATATA [CACACA_site8062],8.88 ± 0.49
7,ATATGTTCATTTAAAAGTACTTAATATAACATTTTT [XGTACX_site3332],8.39 ± 0.34
8,ATTGGTGTATGTTTATGTACTTATCACAATTATGAA [XGTACX_site7055],8.65 ± 0.41
9,TCAAATTACTAAAATACACACATATTATAGATATAT [CACACA_site7233],8.21 ± 0.49
10,TGTATATATAATAAAACACACATTTTTAATGTGCTC [CACACA_site1437],8.01 ± 0.3
11,GTTTTATAAAAAGGCGCACACATATACATAAATATA [CACACA_site1864],9.04 ± 0.4
12,GATAAAGTACTTTATACACACAAATATTTATATATA [CACACA_site3974],8.6 ± 0.48
13,AAAAAGAAAATATATACACACCAAAAAAAAAAAAAA [CACACA_site5698],8.15 ± 0.65
14,TAAATACAAAAATGCACACGAAAAGTAATATATATA [CACACA_site6151],9.18 ± 0.22
15,TTAATCCACAGACACACACACACAAAATAAAATACA [CACACA_site244],8.62 ± 0.47
16,TTATTTATGAAGTATACACACAATATATATATATAT [CACACA_site1248],9.9 ± 0.33
17,TAGTTCTTTTAATTTAGTATTATACAATATTGGAAA [CACACA_negctrl_site521],8.32 ± 0.45
18,AATATATTAAATATTACACACATACATTTAGTGTAA [CACACA_site5145],8.32 ± 0.4
19,TATATATTAAACTTTGCACACATAATTTAACTACAA [CACACA_site3440],8.54 ± 0.16
20,ATTAATAATATTACATGTACATAATATAATTGAAAA [XGTACX_site5084],8.41 ± 0.33
21,TTTATTTTATTCACTATCATAAGCAAAACTTAAACA [GTGCAC_negctrl_site287],8.29 ± 0.35
22,ATTTTTTTTTTTTTTTTTTTTTTTTTTTTTGTTGTT [CACACA_negctrl_site1313],7.92 ± 0.55

row,Sequence,gcPBM binding intensity (ln)
1,TAGTTAATATGATTATGTACATATATATATTAATTT [XGTACX_site1750],8.22 ± 0.27
2,TTAGATATTATTATATGTACATATTATATGTATTAT [XGTACX_site3836],8.48 ± 0.35
3,ATAATATATTTATAAACACACAAAAAAAGTTATATA [CACACA_site6831],8.6 ± 0.47
4,TGTATATGAAAAAATAGTACTCATATAAATATCTTT [XGTACX_site6542],8.36 ± 0.45
5,TTTTTTATTCCATAATATAATATGTTTTGAAATTTG [GTGCAC_negctrl_site440],8.27 ± 0.33
6,ATATACATATCAATGTAATATTATATACTTTTTTAG [CACACA_negctrl_site816],8.14 ± 0.33
7,ATATAATTATATTCCATACACACATATATTTAAAGG [CACACA_site2958],8.54 ± 0.41
8,AAAAAAATAAATAAATGTACATATATAAAACATTGT [XGTACX_site2136],8.87 ± 0.33
9,AAACGAGAACATAATAAATACATAAATAAATAAATA [GTGCAC_negctrl_site433],8.81 ± 0.23
10,TATATACACGCACATACACACAAATAAAAAAACACC [CACACA_site7578],9.26 ± 0.26
11,TGTGTTGTAATTAAAACACACATGAAAAAATTAAAA [CACACA_site51],8.59 ± 0.53
12,GTATTATTCTATAGAAGTACAGTATATTATTATTTA [XGTACX_site5073],8.47 ± 0.16
13,TACAACAAGTAATGGTGTACATTATATTATGTAATA [XGTACX_site1194],8.39 ± 0.3
14,TATAACAATTTTTATGCATGCGACTATAATATTTTT [TGCATGCA_site508],9.32 ± 0.27
15,TACATATTGAATAAGACACACATATATATATATATA [CACACA_site1878],10.1 ± 0.4
16,TAAGGATTGGTATAAAGTACAGGAGTAAATTGAAAA [XGTACX_site8525],8.84 ± 0.41
17,ATATTTTTTTTTTATTGTACCCTCATAAAAGAAAAG [XGTACX_site773],8.52 ± 0.4
18,CATACACATATATATTGTACACATATATGTATGTAT [XGTACX_site4030],8.45 ± 0.28
19,AATAAATATAAATACACACCCATATAAATATAAATA [CACACA_site7264],8.64 ± 0.51
20,ACAAAGATAAAACATAAAATATATCAAACATAAAAT [XGTACX_negctrl_site198],8.65 ± 0.28
21,AAAAAAAATACATGTTGTACGGTACAAATATAAAGT [XGTACX_site2863],9.16 ± 0.2
22,ATATATCTTCTTTGCACACTTAAAGGGAAGTGATAA [CACACA_site342],8.66 ± 0.18
